Results from PubChem BioAssay AID504706 (National Center for Advancing Translational Sciences (NCATS), 2011).
Screen size: about 320,000 compounds; about 200 (0.062%) were called active. Inconclusive means that the source gave no clear call. Such entries were picked first, then a sample of the others. Calls come from the whole dose curve; as a rule, active = well fitted activation curve with a large enough effect; inconclusive = small, poorly fitted or top-dose-only effect; inactive = no such curve, though single readings can be large or run the other way. No potency is given beside an inconclusive call; the fits are too rough.

Assay: qHTS assay for re-activators of p53 using a Luc reporter; note: nearly all actives have a fitted effect of over 45% in size; for activity change, positive = activation: % of control where 0% means no effect
Settings: H1299 p53-A138V BP100-luciferase reporter, luminescence, 24 h; series mostly up to 92.2 µM; activity change, positive = activation: at the top concentration
How it was run: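 p53-null H1299 cells stably carrying temperature-sensitive p53-A138V and a BP100-luciferase reporter were pinned with compounds (4-point, 1:5 series) and held 24 hrs at 37 deg C. Luminescence was read 10 min after detection reagent.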
Potency is the fitted concentration of half-maximal effect; tags give direction and shape of the fitted curve.

Structure (SMILES)	Potency	activity change, positive = activation
COc1ccc(C(=O)NCC(=O)OCC(=O)Nc2ncc(Cl)cc2Cl)cc1[N+](=O)[O-]	inconclusive [activator, single point]	
Cc1nc([N+](=O)[O-])c(Sc2nc3ccc([N+](=O)[O-])cc3[nH]2)n1Cc1ccccc1	inconclusive [activator, single point]	
O=C(Nc1ccccc1)c1cnc2ccccc2n1	inconclusive [activator, partial curve, poor fit]	
Cc1ccnc(NC(=O)c2ccccc2[N+](=O)[O-])c1	inconclusive [activator, single point]	
Cn1nnnc1SCC(=O)Nc1nc(-c2ccccc2)c(-c2ccccc2)o1		inactive: -3.98%
Nn1c(SCC(=O)Nc2ccc(N3CCOCC3)cc2)nnc1-c1cccc(F)c1	inconclusive [activator, single point]	
O=C(Nc1ccc(Br)cc1)c1ccc(CSC2=NCCS2)cc1	inconclusive [activator, partial curve, poor fit]	
O=C(c1ccccc1F)N1CCN(c2ccc([N+](=O)[O-])cc2-n2cccc2)CC1		inactive: 0.968%
COc1cc(/C=N/OCC(=O)NC2CCCCC2C)ccc1OCc1ccc(Cl)cc1 (stereo not drawn)	inconclusive [activator, partial curve, poor fit]	
CCOC(=O)c1[nH]nc(C(=O)c2ccc(Br)cc2)c1O	inconclusive [activator, partial curve, poor fit]	
Cc1ccc(-c2csc(N3CCN(c4cc5c(cc4Cl)nc(-c4ccncc4)n5CCN4CCCCC4)CC3)n2)cc1		inactive: 4.2%
FC(F)(F)Oc1ccc(NC(=S)NCc2ccccc2)cc1	inconclusive [activator, single point]	
CCNc1ccc2noc3c2c1C(=O)c1ccccc1-3		inactive: -6.46%
O=C(CCNC(=O)C1CCN(S(=O)(=O)c2ccccc2)CC1)Nc1cccc(C(F)(F)F)c1		inactive: -4.42%
Cc1cccc(C(=O)Nc2ccc(C)c(OC(=O)c3cccc(C)c3)c2)c1	inconclusive [activator, partial curve, poor fit]	
CCCCNC(=S)N1CCN(C(c2ccccc2)c2ccccc2)CC1		inactive: -5.68%
CC(=O)c1c(N2CCN(CCO)CC2)nc(=S)n(-c2ccccc2)c1C		inactive: -1.19%
Cc1cnc(C(=O)Nc2nccs2)cn1	inconclusive [activator, partial curve, poor fit]	
Cc1onc(-c2c(F)cccc2Cl)c1C(=O)NNC(=O)C1CCN(Cc2ccccc2)CC1		inactive: 13.9%
Cc1ccc(C(=O)OCC(=O)c2ccc(Cl)s2)s1	inconclusive [activator, single point]	
Cc1ccc(Sc2ccc(CO)cc2[N+](=O)[O-])cc1	inconclusive [activator, partial curve, poor fit]	
O=C1C(C=NCc2ccco2)=C(O)c2ccccc21	inconclusive [activator, partial curve]	
CC1Cc2ccccc2N1C(=O)CSc1nnc(Cc2ccccc2)n1CCc1ccccc1 (stereo not drawn)		inactive: 2.64%

Structure (SMILES)	Potency	activity change, positive = activation
O=C(CCCOc1ccccc1)Nc1nccs1	inconclusive [activator, partial curve, poor fit]	
CC(NC(=O)C1CC12CCC2)c1ccccc1 (stereo not drawn)		inactive: -0.535%
O=C(N/N=C/c1ccccc1C(=O)O)c1cccc(S(=O)(=O)N2CCCCC2)c1		inactive: 7.14%
Cn1c(=O)c2c(ncn2CC(=O)Nc2cc(S(=O)(=O)N3CCCCC3)ccc2O)n(C)c1=O	inconclusive [activator, single point]	
CC(=O)Nc1nc2n(n1)C(c1ccc(Cl)cc1)C=C(C)N2 (stereo not drawn)		inactive: -6.74%
COc1ccc(OCC(=O)N/N=C(\C)c2ccc(-n3ccnc3)cc2)cc1	inconclusive [activator, single point]	
Oc1ccccc1/C=N/Nc1ncc(Br)cn1	inconclusive [activator, partial curve, poor fit]	
COc1ccc(CNC(=O)C2COc3ccccc3O2)c(OC)c1 (stereo not drawn)	inconclusive [activator, partial curve, poor fit]	
O=C(N/C=C/n1cnc2cc(C(F)(F)F)ccc21)c1ccccc1	inconclusive [activator, full curve, poor fit]	
O=C(O)CCC(=O)Nc1ccc(-c2nc3ccc(C(=O)c4ccccc4)cc3[nH]2)cc1	inconclusive [activator, partial curve, poor fit]	
O=C(c1sc2cc([N+](=O)[O-])ccc2c1Cl)N1CCCCC1	inconclusive [activator, full curve, poor fit]	
COc1cc(NC(=O)Cn2nc(C(F)(F)F)c3c2CCCC3)cc(OC)c1OC		inactive: -3.24%
O=C(Cc1cccs1)NCc1ccc(F)cc1	inconclusive [activator, full curve]	
O=C(O)COc1ccc(/C=N/n2c(COc3ccccc3)nc3ccccc3c2=O)cc1	inconclusive [activator, partial curve, poor fit]	
O=C(Nc1ccc2c(c1)OCCO2)C1CCCC1	inconclusive [activator, full curve, poor fit]	
CCN1/C(=C/c2ccc3cc(C)ccc3[n+]2C)Sc2ccc3sccc3c21		inactive: -2.42%
Cn1ccnc1SCC(=O)c1ccc(Cl)cc1	inconclusive [activator, full curve, poor fit]	
CC/C(=N\NC(=S)NC(C)C)c1ccc(OC)c(OC)c1		inactive: -1.64%
O=C(NC1(C(=O)NC2CCCCC2)CCCCC1)c1ccc2c(c1)OCO2	inconclusive [activator, partial curve, poor fit]	
CCC(=NCc1ccco1)c1c(C(F)(F)F)[nH]n(-c2nc3ccccc3s2)c1=O	inconclusive [activator, partial curve, poor fit]	
CCCc1nnc(NC(=S)Nc2ccccc2)s1		inactive: 6.22%
CCOc1ccc(C(=O)N2CCN(c3ccccn3)CC2)cc1OCC	inconclusive [activator, single point]	
COc1cccc(COc2ccc3ccc(=O)oc3c2)c1	inconclusive [activator, partial curve, poor fit]	

Structure (SMILES)	Potency	activity change, positive = activation
COc1cccc(/C=N/NC(=O)CNC(=O)c2ccc3c(c2)OCCO3)c1O	inconclusive [activator, partial curve, poor fit]	
Cn1c2ccccc2c(=O)c2cc(C#CC3=CCCCC3)ccc21	inconclusive [activator, partial curve, poor fit]	
Cc1ccc(N=Nc2[nH]c3ccccc3c2O)cc1	inconclusive [activator, partial curve, poor fit]	
O=C(NC(=S)Nc1cccc(F)c1)c1cccc([N+](=O)[O-])c1	inconclusive [activator, single point]	
Cc1cc(C(=O)CSc2nc3ccccc3n2CCC#N)c(C)n1Cc1cccs1	inconclusive [activator, partial curve, poor fit]	
CCCC(=O)Nc1cccc(-c2nc3cc(C)c(C)cc3o2)c1	inconclusive [activator, partial curve, poor fit]	
C=CCN(C(=O)CSc1nc2ccsc2c(=O)n1Cc1ccccn1)c1ccccc1		inactive: 3.64%
CSc1ccccc1-c1nnc(-c2ccc(Cl)cc2)o1	inconclusive [activator, full curve, poor fit]	
Cc1cc(C)c(C#N)c(SCC(=O)Nc2ccc(S(=O)(=O)Nc3ncccn3)cc2)n1	inconclusive [activator, single point]	
CCOC(=O)C1CCN(c2c([N+](=O)[O-])c(C(Cl)Cl)nn2-c2ccccc2)CC1	inconclusive [activator, single point]	
O=C1c2ccccc2NC(c2ccc(O)cc2)N1/N=C/c1ccc(O)cc1 (stereo not drawn)	inconclusive [activator, partial curve, poor fit]	
Cc1ccc2nc(-c3ccc(SCC(=O)N4CCc5ccccc54)nc3)[nH]c2c1	inconclusive [activator, partial curve, poor fit]	
COCC(=O)Nc1nc2n(n1)C(c1ccc(Cl)cc1)CC(c1ccc(OC)cc1)N2 (stereo not drawn)		inactive: -3.94%
CN(C)S(=O)(=O)c1ccc(Cl)c(NC(=O)COC(=O)/C=C/c2ccco2)c1		inactive: -0.806%
CC(Oc1ccccc1F)C(=O)Nc1ccc2ccccc2c1 (stereo not drawn)	inconclusive [activator, full curve]	
CCc1noc(C)c1C(=O)NCCc1ccccc1	inconclusive [activator, partial curve, poor fit]	
Cc1cccc(CSC(=N)N)c1	inconclusive [activator, partial curve, poor fit]	
COc1cccc2cc(C(=O)OC3CCN(C)CC3)c(=O)oc12	inconclusive [activator, full curve, poor fit]	
COCCCNC(=O)Cn1ccc(N)nc1=O	inconclusive [activator, single point]	
COc1ccc(S(=O)(=O)N2CCN(C)CC2)cc1C(=O)N1CCCCC1		inactive: 11.1%
COc1ccc(-c2ccc(SCC(=O)N3c4ccccc4CC3C)nn2)cc1OC (stereo not drawn)		inactive: -11.3%
C/C(=N\NC(=O)c1cc(-c2cccnc2)nc2ccccc12)c1ccccc1O	inconclusive [activator, full curve, poor fit]	
